# Results as given in PMC6451091.
# Some of the results follow. For part of these data: At the low end of the ranking, values are background and their order means little. For part of these data: Measured with an extract: partners may take part in the binding.
# Target: PU.1 (IVT) (UniProt P17947)
# Assay: protein-binding microarray (PBM)
# Details: 20 mM HEPES pH 7.9, 100 mM NaCl, 1 mM DTT, 0.2 mg/mL BSA, 0.02% Triton X-100, 2% milk, 0.4 mg/mL salmon testes DNA; 1 h; temperature not stated; high values mean tight binding; double strand, one strand shown; sequences stand for … in GCCTAGCAC…GTGCTAGGTCTTGATTCGCTTGACGCTGCTG
row,Sequence,binding signal [z-score]
1,CTGCCAGGGAAGTGAAACCA,1.07
2,GAAAAGGGGAACTGAAACTA,6.15
3,CTGGCAGGGAACTAAAACTC,1.1
4,AGGAAGAGGAAGAGAAACTA,2.47
5,TAAAAAAGGAAATGAAAGTA,2.77
6,GGAAAGTGGAACTGAAACTT,1.93
7,TCAGGGAGGAAGTGAAACTG,3.73
8,TGGCAGAGGAAGTGAGACTA,3.33
9,CTGGCAGGGAACTTAAACTC,0.978
10,CTGCCAGGGAAGTGAAAGTA,1.1
11,TGAGAAGAGAAGTGAAACCT,1.01
12,GTGGGAGGGAAGTGAAACTC,2.37
13,CTAAGAAGGAACTGAAACTT,2.36
14,GTTGTGAGGAAGTGAAAATA,4.1
15,TGGCAGAGGATGTGAAACTA,0.483
16,CGAAAAGGGAAATGAAACCA,2.9
17,AGAAAAGGGAACTGAAACTC,5.02
18,AAAATCAGGAACTGAAACTA,3.95
19,GTTTTGAGGAACTGAAACTC,4.5
20,GAAAAAAGGAAATGAAAGTA,3.16

row,Sequence,binding signal [z-score]
1,CAGCCAGGGAAGTGAAAGCA,0.79
2,TGAGAGGAGAAGCGAAACCT,0.358
3,CTGGCAGGGAACTGAAAGTC,0.723
4,TAAAGGAGGAACGGAAACCA,1.15
5,TGGCAGACGAAGTGAAACTA,-0.497
6,TGAGAGGAGAAGTGAAAGCT,1.16
7,GATAGGAGGAACTGAAAGCT,2.1
8,GTTAAGAGGAACTGAAAGCT,3.77
9,CTGCCGGGGAAGTGAAAGCA,1.25
10,CTGCCACGGAAGTGAAAGCA,0.972
11,TGAAACAGGAACTGAAACCA,4.03
12,CCTGAGAGGAAGTGAAACTA,3.87
13,TGAAACAGGATGTGAAACCA,1.33
14,AAAAAAGAGAAGTGAAACTA,4.61
15,CTGCCAGGGAAGTGGAAGCA,2.09
16,TTAGAGGAGAAGTGAAACCT,1.39
17,TTTTTAGGGAAGTGAAACTA,6.23
18,ATTAAACGGAAGTGAAACTT,4.33
19,GCCGGGAGGAAGTGAAACTC,3.13
20,TGAAAGAGGAACCGAAACTC,4.2

# Target: T1, FLI1 (endogenous, THP-1 nuclear extract) (UniProt Q01543)
# T1 sequence: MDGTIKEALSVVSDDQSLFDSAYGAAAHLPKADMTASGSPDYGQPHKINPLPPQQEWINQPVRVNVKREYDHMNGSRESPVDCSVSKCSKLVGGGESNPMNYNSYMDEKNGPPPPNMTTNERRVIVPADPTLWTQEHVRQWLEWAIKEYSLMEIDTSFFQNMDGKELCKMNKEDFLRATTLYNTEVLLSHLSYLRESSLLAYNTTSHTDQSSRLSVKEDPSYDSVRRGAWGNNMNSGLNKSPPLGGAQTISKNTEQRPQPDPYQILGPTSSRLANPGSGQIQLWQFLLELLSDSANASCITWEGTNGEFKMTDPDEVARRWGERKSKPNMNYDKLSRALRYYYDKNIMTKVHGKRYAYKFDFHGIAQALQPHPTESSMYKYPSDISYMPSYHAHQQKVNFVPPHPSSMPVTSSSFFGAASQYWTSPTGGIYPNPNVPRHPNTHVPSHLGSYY
# Assay: nuclear extract protein-binding microarray (nextPBM)
# Details: 20 mM HEPES pH 7.9, 100 mM NaCl, 1 mM DTT, 0.2 mg/mL BSA, 0.02% Triton X-100, 2% milk, 0.4 mg/mL salmon testes DNA; 1 h; temperature not stated; high values mean tight binding; double strand, one strand shown; sequences stand for … in GCCTAGCAC…GTGCTAGGTCTTGATTCGCTTGACGCTGCTG
row,Sequence,binding signal [z-score]
1,CTGCCAGGGAAGTGAAACCA,1.29
2,GAAAAGGGGAACTGAAACTA,3.65
3,CTGGCAGGGAACTAAAACTC,0.256
4,AGGAAGAGGAAGAGAAACTA,2.47
5,TAAAAAAGGAAATGAAAGTA,2.51
6,GGAAAGTGGAACTGAAACTT,1.12
7,TCAGGGAGGAAGTGAAACTG,3.31
8,TGGCAGAGGAAGTGAGACTA,2.67
9,CTGGCAGGGAACTTAAACTC,-0.135
10,CTGCCAGGGAAGTGAAAGTA,1.06
11,TGAGAAGAGAAGTGAAACCT,0.00363
12,GTGGGAGGGAAGTGAAACTC,2.32
13,CTAAGAAGGAACTGAAACTT,0.911
14,GTTGTGAGGAAGTGAAAATA,2.06
15,TGGCAGAGGATGTGAAACTA,1.72
16,CGAAAAGGGAAATGAAACCA,2.34
17,AGAAAAGGGAACTGAAACTC,2.66
18,AAAATCAGGAACTGAAACTA,2.51
19,GTTTTGAGGAACTGAAACTC,2.71
20,GAAAAAAGGAAATGAAAGTA,2.49
